# In PubChem BioAssay AID651568 (National Center for Advancing Translational Sciences (NCATS), 2012):
# The whole screen tested about 1,200 compounds, of which about 55 (5%) were called active. Roughly 15% stayed inconclusive and do not appear here. The call rests on the fitted dose curve; in most records, active means well fitted inhibition curve with a large enough effect; inconclusive means small, poorly fitted or top-dose-only effect; inactive means no such curve, though single readings can be large or run the other way. The list shows a part of the results.
# Assay: qHTS Assay to Find Inhibitors of Chronic Active B-Cell Receptor Signaling: Hit Validation in Renilla Reporter Assay; further: nearly all actives have a fitted effect of over 70% in size
# Conditions: TMD8 IkB-Renilla luciferase reporter, NF-kB signaling; series mostly up to 57.5 µM; activity change, negative = inhibition: at the top concentration
# Method in brief: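 Orthogonal secondary test of primary-screen hits in ABC-DLBCL cells carrying constitutively expressed IkB-Photinus and Renilla luciferase reporters, read by Dual-Glo luminescence; luciferases differ from the primary assay's click beetle enzymes, to exclude assay-specific artifacts.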
# On the % scale 0 is the no-effect control and ±100 the full control effect.
row,Compound,"activity change, negative = inhibition"
1,COc1ccc(NC(=O)Cn2nnc(-c3ccccc3NS(=O)(=O)c3ccc(OC)cc3)n2)cc1,inactive: 15.7%
2,CCOC(=O)c1cnc(Nc2nc3ccccc3o2)nc1CSC(=S)N(CC)CC,inactive: -9.25%
3,CCOc1ccc(Cl)cc1C1=CC(=O)C[C@H](c2ccc(OC)cc2)C1,inactive: 7.4%
4,C[C@@H]1C[C@H]2[C@@H]3C[C@H](F)C4=CC(=O)C=C[C@]4(C)[C@@]3(F)[C@@H](O)C[C@]2(C)[C@@]1(O)C(=O)CO,inactive: 4.85%
5,COc1ccc(CCNC(=O)Cn2c(=O)cnc3ccccc32)cc1,inactive: -19.8%
6,CCN(CC)c1ccc(NC(=O)CN2CCN(CC(=O)Nc3ccccc3F)CC2)cc1,inactive: -0.989%
7,CCOC(=O)COc1cccc2c(=O)n(CC(=O)NCc3ccccc3)ccc12,inactive: 4.41%
8,Cc1cccc(C)c1NC(=O)CNC(=O)CNC(=O)Cc1cccc2ccccc12,inactive: -7.19%
9,COc1cc2c(cc1OC)C(c1ccc(OC)c(OC)c1OC)CC(=O)N2 (stereo not given),inactive: 0.463%
10,C/C(=N\N1C(=O)c2ccccc2NC1c1ccco1)c1ccccc1O (stereo not given),inactive: -0.09%
11,CCOc1cc(-c2nnc(SCC(=O)NCc3ccccc3)nc2-c2ccc(OC)c(OCC)c2)ccc1OC,inactive: 2.52%
12,COC(=O)c1ccc(C)c(NS(=O)(=O)c2ccc(OC)cc2)c1,inactive: 32.4%
13,Oc1[nH]c2ccc(Br)cc2c1N=NC(=S)Nc1ccc(F)cc1,inactive: -26.4%
14,COC(=O)C1C(O)=C(C=Nc2ccccc2)C(=O)CC1(C)C (stereo not given),inactive: -1.84%
15,NC(=S)N=Nc1c(O)n(Cc2ccc(Br)cc2)c2ccccc12,inactive: -29.3%
16,CN(C(=O)c1ccc(-c2nn(C)c(=O)c3ccccc23)cc1)C1CCCCC1,inactive: 0.45%
17,Cc1noc(C)c1CSc1ncnc2ccccc12,inactive: -12.4%
18,CS(=O)(=O)C1=C(O)C(=O)N(c2ccccc2)C1c1ccccc1 (stereo not given),inactive: 3.86%
19,COc1c(Cl)cc(C(=O)NN)cc1Cl,inactive: -13.8%
20,C=CCN(C(=O)CSC1=NC(=O)CN1C(C)=O)c1nc(C)c(-c2ccccc2)s1,inactive: 58.9%
21,COc1ccc(C2=NC(C)(C)Cc3cc(OC)c(OC)cc32)cc1OC,inactive: 3.33%
22,COc1cc(NC(=O)CSc2nc3[nH]ncc3c(=O)n2-c2ccccc2C)cc(OC)c1OC,inactive: -2.43%

row,Compound,"activity change, negative = inhibition"
1,CC1=CC(C)(C)N(S(=O)(=O)c2ccc(C)cc2)c2ccccc21,inactive: -23.4%
2,Cc1ccc(C)c(NC(=S)N=Nc2c(O)n(C)c3ccc(S(=O)(=O)N4CCOCC4)cc23)c1,inactive: -21.4%
3,COC(=O)c1ccc(C)c(NS(=O)(=O)c2ccc3c(c2)OCCO3)c1,inactive: 36.8%
4,COc1cc(Cc2nccc3cc(OC)c(OC)cc23)c(NC(C)=O)cc1OC,inactive: -1.23%
5,N#CCCn1cc(/C=N/NC(N)=S)c(-c2ccc(Br)cc2)n1,inactive: 1%
6,O=C(NN=C1CCCC1)c1n[nH]c2c1CCC2,inactive: 4.81%
7,COc1cc(C(=O)NCc2cc(C)nc3ccccc23)cc(OC)c1OC,inactive: 6.55%
8,NC(=O)NC[C@@H]1CC[C@@H](Cc2ccc(-c3ccccc3)cc2)O1,inactive: 0.277%
9,Cc1[nH]n(C(N)=S)c(=O)c1N=Nc1cccc(Cl)c1,inactive: -4.65%
10,CCNC(=O)[C@H]1O[C@@H](n2cnc3c(N)nc(NCCc4ccc(CCC(=O)O)cc4)nc32)[C@H](O)[C@@H]1O,inactive: -1.91%
11,CCC(C)NC(=O)c1ccccc1NC(=O)c1ccc(CSc2ccccc2)cc1 (stereo not given),inactive: 1.11%
12,Cc1ccccc1Nc1nc(N)nc(COC(=O)c2cccc(S(=O)(=O)N(C)C)c2)n1,inactive: 15%
13,CCc1cc2c(SCC(=O)Nc3ccc(NC(C)=O)cc3)ncnc2s1,inactive: 8.38%
14,CN(CC(=O)Nc1ccc2c(c1)OCCO2)Cc1nc2ccccc2c(=O)[nH]1,inactive: -15%
15,CCN(CC)c1ccc2cc(-c3nc4ccccc4n3C)c(=O)oc2c1,inactive: -11.6%
16,COc1cc(C(=O)O/N=C(\N)c2ccc([N+](=O)[O-])cc2)cc(OC)c1OC,inactive: 8.2%
17,COc1cc(OC)cc(C(=O)N[C@H](C(=O)Nc2nc3ccccc3[nH]2)C(C)C)c1,inactive: -25.8%
18,Cc1ccc(C)c(Cn2c(=O)n(-c3ccc(CC(=O)NCc4ccco4)cc3)c(=O)c3sccc32)c1,inactive: -11%
19,COc1cc2c(c(OC)c1OC)-c1ccc(OC)c(=O)cc1[C@@H](N(C)CC#CCO)CC2,inactive: -10.2%
20,O=C(Nc1ccc(N2CCCC2)cc1)c1cc(Cl)ccc1Cl,inactive: -23.5%
21,O=C(CSc1cccc[n+]1[O-])CSc1cccc[n+]1[O-],inactive: -16.3%
22,COc1ccc2nc(NC(=S)NC(=O)c3ccco3)sc2c1,inactive: -4.21%

row,Compound,"activity change, negative = inhibition"
1,S=c1c2c(nc3nc[nH]n13)CCC2,inactive: 1.81%
2,COc1cc(OC)cc(C(=O)N2CC(=O)Nc3ccccc32)c1,inactive: -10.2%
3,CCCc1nnc(NC(=O)CCC(=O)NCCc2ccc(OC)c(OC)c2)s1,inactive: -17.6%
4,Cc1ccc(NC(=S)NC(=O)C2CC2)cc1Cl,inactive: 2.69%
5,Cc1ccc(N=Nc2c(C)[nH]n(C(N)=S)c2=O)cc1,inactive: 3.24%
6,COCCNC(=S)N/N=C(\C)c1ccc(Cl)c(Cl)c1Cl,inactive: 0.132%
7,Cc1ccc(Sc2c(CO)c(-c3ccccc3)nn2C)cc1,inactive: 4.68%
8,CCCCC[C@H](O)/C=C/[C@H]1CCC(=O)[C@@H]1CCCCCCC(=O)N1CCCCC1CO (stereo not given in full),inactive: -12.4%
9,Nc1ncnc2c1ncn2C1OC(C(=O)NC2CC2)C(O)C1O (stereo not given),inactive: -1.87%
10,CCCOc1ccccc1C1CC(=O)Nc2cc3c(cc21)OCO3 (stereo not given),inactive: -29.4%
11,Cc1cc2nc(/C=C/c3cccnc3)[nH]c2cc1C,inactive: -18.3%
12,N#CC(C#N)=C(N)CSc1cccc[n+]1[O-],inactive: 2.92%
13,NNC(=O)c1[nH]c2ccc([N+](=O)[O-])cc2c1-c1ccccc1,inactive: -13.4%
14,COc1cc(C2Nc3ccccc3C(=O)N2c2ccc(Cl)cc2)c(Cl)cc1OCC(=O)O (stereo not given),inactive: -8.32%
15,Cc1ccc(C)c(NS(=O)(=O)c2ccc(-c3cnc(C4CC4)o3)cc2)c1,inactive: -22.1%
16,Oc1ccc(-c2nc3cnccn3c2Nc2ccc3c(c2)OCCO3)cc1,inactive: 4.29%
17,CCOc1ccc(N(CC(=O)Nc2ccccc2OCC)S(=O)(=O)c2c(C)noc2C)cc1,inactive: -3.84%
18,Cc1cc(=O)c(C(=O)Nc2cccc(N3CCCC3=O)c2)nn1-c1ccccc1Cl,inactive: 1.45%
19,COc1cc([C@@H]2c3cc4c(cc3[C@H](O)[C@H]3COC(=O)[C@H]23)OCO4)cc(OC)c1OC,inactive: -16%
20,CCOC(=O)C(C)N1C(=O)S/C(=C/c2ccc3c(c2)n(C)c(=O)n3C)C1=O (stereo not given),inactive: 1.42%
21,CCCCC[C@H](O)/C=C/[C@@H]1[C@@H](C/C=C\CCCC(=O)O)[C@H]2CO[C@@H]1C2,inactive: -2.61%
